From the supplement of paper PMC3334620
Whole data set: some 33,000 sequences, median “E-score (-0.5 to 0.5)” near -0.053, cut for the highest 2% near 0.37. The list shows a part of the results.

Biological target: Hap1 (UniProt P0CE41)
Assay: PBM E-score (8-mer binding enrichment) (E-score (-0.5 to 0.5)); higher = stronger / more preferred TF binding; most listed sequences are background and not binding sites
Settings: protein concentration: 200 nM; construct: GST-DNA-binding domain
Description: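 Universal 'all 10-mer' protein binding microarrays (Agilent AMADID 015681) probed with GST-tagged S. cerevisiae TFs (full-length or DBD) made by in vitro transcription/translation (PURExpress), about 100-200 nM. Bound TF was detected with fluorescent anti-GST. Each ungapped 8-mer (which stands for itself and its reverse complement) is scored by the PBM enrichment score (E-score), a modified Wilcoxon-Mann-Whitney statistic from -0.5 to +0.5, computed with the Universal PBM Analysis Suite. Scale: above 0.35 generally sequence-specific binding.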

Sequence of UniProt P0CE41 (P0CE41 whole entry): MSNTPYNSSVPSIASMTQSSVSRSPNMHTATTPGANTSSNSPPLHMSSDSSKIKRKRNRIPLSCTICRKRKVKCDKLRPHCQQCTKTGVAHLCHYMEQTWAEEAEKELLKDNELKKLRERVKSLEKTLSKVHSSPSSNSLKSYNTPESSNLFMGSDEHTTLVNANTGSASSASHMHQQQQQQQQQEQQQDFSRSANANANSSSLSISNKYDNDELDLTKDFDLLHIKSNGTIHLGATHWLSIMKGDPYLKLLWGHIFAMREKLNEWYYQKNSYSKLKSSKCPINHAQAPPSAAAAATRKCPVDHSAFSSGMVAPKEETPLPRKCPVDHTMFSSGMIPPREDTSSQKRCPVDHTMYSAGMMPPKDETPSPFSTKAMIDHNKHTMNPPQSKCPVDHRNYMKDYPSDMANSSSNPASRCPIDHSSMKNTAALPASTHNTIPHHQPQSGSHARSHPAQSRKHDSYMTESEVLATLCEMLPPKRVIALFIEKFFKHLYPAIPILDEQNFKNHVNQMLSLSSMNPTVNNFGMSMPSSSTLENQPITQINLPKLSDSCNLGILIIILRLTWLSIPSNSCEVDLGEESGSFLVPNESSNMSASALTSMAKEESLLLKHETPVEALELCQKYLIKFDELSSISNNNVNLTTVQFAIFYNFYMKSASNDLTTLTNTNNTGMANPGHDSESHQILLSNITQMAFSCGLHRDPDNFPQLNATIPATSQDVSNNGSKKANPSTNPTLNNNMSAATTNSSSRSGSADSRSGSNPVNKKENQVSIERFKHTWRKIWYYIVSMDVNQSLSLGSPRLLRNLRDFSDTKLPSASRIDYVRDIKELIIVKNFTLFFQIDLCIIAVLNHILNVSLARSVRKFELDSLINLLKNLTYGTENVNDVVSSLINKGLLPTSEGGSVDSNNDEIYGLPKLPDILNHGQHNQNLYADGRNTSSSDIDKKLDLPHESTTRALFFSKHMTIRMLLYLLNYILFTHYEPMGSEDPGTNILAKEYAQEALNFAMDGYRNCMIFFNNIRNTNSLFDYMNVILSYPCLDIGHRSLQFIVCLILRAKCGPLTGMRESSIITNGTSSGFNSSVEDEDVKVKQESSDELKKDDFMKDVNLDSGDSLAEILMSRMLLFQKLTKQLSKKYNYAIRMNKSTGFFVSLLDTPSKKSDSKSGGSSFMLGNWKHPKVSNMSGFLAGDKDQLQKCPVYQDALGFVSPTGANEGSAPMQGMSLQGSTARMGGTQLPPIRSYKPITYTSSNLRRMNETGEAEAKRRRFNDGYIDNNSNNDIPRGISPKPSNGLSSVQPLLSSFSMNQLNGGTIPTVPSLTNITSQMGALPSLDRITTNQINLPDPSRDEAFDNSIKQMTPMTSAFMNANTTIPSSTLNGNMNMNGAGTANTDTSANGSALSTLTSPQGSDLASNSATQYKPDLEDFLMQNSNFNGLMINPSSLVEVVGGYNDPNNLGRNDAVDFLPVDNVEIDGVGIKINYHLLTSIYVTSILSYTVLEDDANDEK

| Sequence | PBM E-score |
| --- | --- |
| ACGACTTC | -0.124 |
| GGCGTACA | -0.132 |
| ATATTCAC | -0.0291 |
| CCACGTCC | -0.0087 |
| CACTTATC | 0.0508 |
| CTGGGCAA | -0.151 |
| CAATTTAA | -0.0535 |
| ACTGGTAG | -0.206 |
| CAAGCAAA | -0.15 |
| CCATCTGA | -0.17 |
| TAAGCTTA | -0.264 |
| TTCAAAAA | -0.0615 |
| CACACATC | -0.11 |
| GTCGGACA | 0.347 |
| TGGAGACA | -0.0431 |
| TCAGTTAA | -0.0178 |
| ACTGCATG | -0.114 |
| ACAGCATG | -0.163 |
| AATAGCCT | -0.152 |
| GCTTTAGA | -0.0658 |
| AGGATATA | 0.0407 |
| CCAGTGTA | -0.136 |
| CGTCGTTA | 0.0443 |
| AACTAATT | 0.0862 |
| GCTTTCTA | -0.0856 |

| Sequence | PBM E-score |
| --- | --- |
| CACACAAG | -0.23 |
| GGCGACCA | -0.0411 |
| GGCTGTTA | 0.113 |
| GTAGAACA | -0.266 |
| ACCTCGCC | 0.0632 |
| AAAACTGG | -0.0727 |
| ACAGCACT | -0.0793 |
| TATACATA | -0.222 |
| CGAAGCAC | -0.119 |
| CAATGTTA | -0.236 |
| CGGGACAC | 0.228 |
| CAAGAATG | -0.0801 |
| GATAACAC | 0.129 |
| AGGTATCC | 0.0381 |
| ACATACAC | -0.146 |
| AGGGACTA | -0.209 |
| ATGGTGAC | -0.329 |
| CAGAACTC | -0.141 |
| AATGATGG | 0.0541 |
| AATTCCCG | 0.34 |
| CTTCATCA | -0.0477 |
| CGATAGGC | 0.17 |
| GCGTGCGA | -0.094 |
| GGAGGAAA | 0.193 |
| GTGCTGCA | 0.0816 |

| Sequence | PBM E-score |
| --- | --- |
| CGTGAAAA | -0.0852 |
| CCCGGAGA | 0.428 |
| GCTGACGA | -0.228 |
| ATCAGGGC | -0.185 |
| CAGTAGAA | -0.229 |
| AACTTCCT | -0.131 |
| CGGGTGAC | 0.234 |
| GCGACGCC | 0.173 |
| GCCGTCAC | 0.162 |
| AGAATATG | -0.0775 |
| CTATTCTA | -0.106 |
| CACAAGGA | -0.286 |
| ACTGGGGG | -0.222 |
| AATTGCGG | 0.102 |
| ATAAAGCC | 0.292 |
| GTTCGAGA | -0.135 |
| AACGCCGC | 0.355 |
| GTAGTAAC | 0.0801 |
| CCCTATAG | -0.109 |
| CGTTTACC | 0.0814 |
| GATCCAAC | 0.0837 |
| CTTACAAC | -0.137 |
| CTGAGCAG | -0.183 |
| AGCGAGTC | 0.0657 |
| AGTGCAAG | -0.126 |

| Sequence | PBM E-score |
| --- | --- |
| ATGGCCTC | -0.0258 |
| AACCGAGC | 0.371 |
| GAGAATGC | 0.0329 |
| CCCCAAGC | 0.122 |
| CGGCCGAG | 0.449 |
| TCAATAGA | -0.222 |
| ACAACGCC | 0.0572 |
| CCTAGGGA | -0.112 |
| GAGCGCCC | 0.0793 |
| CACAATTC | -0.0215 |
| TACATAAA | -0.215 |
| AATACCCG | 0.329 |
| CTGGCAAA | -0.146 |
| ATCTTCGA | -0.116 |
| GTGCGATA | 0.165 |
| ACTATGTA | -0.239 |
| ATGACTTG | -0.0601 |
| ACTCCAAT | -0.18 |
| GCGTGAAA | -0.0808 |
| CTGAACTC | -0.207 |
| TCCTCCAA | -0.155 |
| ATGACTGC | -0.102 |
| GAGTGTGC | 0.0713 |
| GCCCACGA | -0.183 |
| CAGGAAGC | -0.0892 |

| Sequence | PBM E-score |
| --- | --- |
| GCGTGCAA | -0.19 |
| AAAACCGG | 0.359 |
| AGTGCCAC | -0.286 |
| AAGCTGGG | -0.131 |
| AGATGTCC | 0.156 |
| GAGTAAAA | 0.0258 |
| ACTAAATG | -0.164 |
| GCTGGACA | -0.189 |
| AAAAAACC | -0.0177 |
| AGAGCCAA | -0.12 |
| TGGGACCA | -0.19 |
| CTAAGACC | 0.132 |
| CTCCATAA | -0.15 |
| AAGTGCCG | 0.167 |
| CGCTGAAA | -0.00205 |
| AGCTATAT | -0.11 |
| GCCTCCTA | -0.165 |
| TCAATTCA | -0.129 |
| GGGCGAGA | 0.0917 |
| CCCTTCCC | -0.0794 |
| CTCTTCGA | 0.00021 |
| CCGCGAGG | 0.272 |
| AGTCTCCC | -0.0501 |
| AGCGGACG | 0.297 |
| GGCAGGAA | -0.15 |

| Sequence | PBM E-score |
| --- | --- |
| GTACGGTA | 0.0448 |
| ACCAAGAC | -0.0755 |
| ATCCGAAA | 0.389 |
| TAGCCTAA | -0.158 |
| GTAGGGAC | -0.0187 |
| ACTGGTGC | 0.0548 |
| GAGGCGGC | 0.0321 |
| CATATGAG | -0.0541 |
| CCTATACG | -0.214 |
| TAGTTCAA | -0.0733 |
| AGTGGTCG | -0.0002 |
| GGAGTCCC | -0.0836 |
| AACTCACG | -0.188 |
| TAGTGAGA | -0.197 |
| CGGCGGTA | 0.428 |
| GGGAAGGA | -0.139 |
| GTTATAGA | -0.289 |
| AAAAAATG | 0.00324 |
| CCAACGGC | -0.0598 |
| ATCTAACA | -0.22 |
| ATGGAGCG | -0.0881 |
| CCCGGTGC | 0.323 |
| CCCTATAC | -0.184 |
| ATTGGCGG | -0.0708 |
| ACCCCAAG | -0.0426 |

| Sequence | PBM E-score |
| --- | --- |
| ATCGGACA | 0.394 |
| CGGAAGCA | 0.315 |
| CGGATTAG | 0.305 |
| TCCGCAAA | 0.327 |
| GCGGCTGA | -0.125 |
| AACGTCCA | -0.0731 |
| AAGATCTA | -0.12 |
| GACCTTAC | 0.196 |
| CGTGAATA | -0.00945 |
| ATCTGGCG | 0.0049 |
| ACTCGTAA | -0.0238 |
| CCTGTTAG | -0.152 |
| GAGGCGGA | 0.239 |
| CCAACAGC | -0.0833 |
| AAGTACCC | -0.0579 |
| CATATATC | 0.176 |
| ATCTCTGG | -0.275 |
| CGCTGGTC | -0.127 |
| AGGTGTAA | -0.0467 |
| TGGTGACA | -0.219 |
| CCAGACAG | -0.128 |
| ATCGCGAT | 0.17 |
